According to the supplement of paper PMC4967469:
A lower IC50 marks a more sensitive line; a limit (>, <) means that the fit lies beyond the doses tested. AUC is the area under the same curve over the 256-fold range up to the top dose, as a fraction: 1 means no effect, lower means more sensitive. For some assays here: A top dose marked as inferred was derived from the fitted curves, not read from the paper. For some assays here: An entry number marks a drug with two screens in the source, which often give different values.

Legend:
Test in all cases: Viability of human cancer cell lines after 72 h of drug (GDSC screen)
(5Z)-7-Oxozeaenol = compound: COc1cc(O)c2c(c1)/C=C/C[C@H](O)[C@H](O)C(=O)/C=C\C[C@H](C)OC2=O [(5Z)-7-Oxozeaenol]; conditions: top dose 10 µM; top dose inferred
Procedure: (§1)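 Human cancer cell lines in 384-well plates, medium with 10% serum, drug for 72 h over a 256-fold dose range (nine 2-fold or five 4-fold steps up to the top dose). Adherent lines were fixed and stained with the nucleic acid dye Syto60, suspension lines read with resazurin; signal relative to control wells, capped at 0 and 100%. One two-parameter sigmoid per drug and line, fitted in a mixed model over all curves with the slope shared within a line.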

Cytarabine = compound: Nc1ccn([C@@H]2O[C@H](CO)[C@@H](O)[C@@H]2O)c(=O)n1 [Cytarabine]; conditions: top dose 2 µM
Procedure: as §1

Zibotentan = compound: COc1nc(C)cnc1NS(=O)(=O)c1cccnc1-c1ccc(-c2nnco2)cc1 [Zibotentan]; conditions: top dose 20 µM; top dose inferred
Procedure: as §1

KU-55933 = compound: O=c1cc(-c2cccc3c2Sc2ccccc2S3)oc(N2CCOCC2)c1 [KU-55933]; conditions: top dose 10 µM
Procedure: as §1

ABT-869 = compound: Cc1ccc(F)c(NC(=O)Nc2ccc(-c3cccc4[nH]nc(N)c34)cc2)c1 [ABT-869]; conditions: top dose 1.024 µM; top dose inferred
Procedure: as §1

CP466722 = compound: COc1cc2ncnc(-n3nc(-c4ccccn4)nc3N)c2cc1OC [CP466722]; conditions: top dose 16 µM; top dose inferred
Procedure: as §1

CHIR-99021 = compound: Cc1cnc(-c2cnc(NCCNc3ccc(C#N)cn3)nc2-c2ccc(Cl)cc2Cl)[nH]1 [CHIR-99021]
Procedure: as §1

MPS-1-IN-1 = compound: COc1cc(N2CCC(O)CC2)ccc1Nc1cc(Nc2ccccc2S(=O)(=O)C(C)C)c2cc[nH]c2n1 [MPS-1-IN-1]; conditions: top dose 20 µM; top dose inferred
Procedure: as §1

Thapsigargin = compound: C/C=C(/C)C(=O)O[C@H]1C(C)=C2[C@H]([C@@H]1OC(=O)CCCCCCC)[C@@](C)(OC(C)=O)C[C@H](OC(=O)CCC)[C@@]1(O)[C@H]2OC(=O)[C@@]1(C)O [Thapsigargin]; conditions: top dose 0.512 µM; top dose inferred
Procedure: as §1

GSK269962A = compound: CCn1c(-c2nonc2N)nc2cnc(Oc3cccc(NC(=O)c4ccc(OCCN5CCOCC5)cc4)c3)cc21 [GSK269962A]; conditions: top dose 5 µM; screen: GDSC drug entry 1192; top dose inferred
Procedure: as §1

QL-X-138 = compound: C=CC(=O)Nc1cc(-n2c(=O)ccc3cnc4ccc(-c5cn[nH]c5)cc4c32)ccc1C [QL-X-138]; conditions: top dose 10.24 µM; top dose inferred
Procedure: as §1

ABT-888 = compound: C[C@]1(c2nc3c(C(N)=O)cccc3[nH]2)CCCN1 [ABT-888]; conditions: top dose 5 µM; top dose inferred
Procedure: as §1

[1] = top dose 2.56 µM, screen: GDSC drug entry 154
[2] = top dose 10 µM, screen: GDSC drug entry 1241, top dose inferred

Cell Line | AUC ((5Z)-7-Oxozeaenol) | IC50 ((5Z)-7-Oxozeaenol) [µM] | AUC (Cytarabine) | IC50 (Cytarabine) [µM] | AUC (Zibotentan) | IC50 (Zibotentan) [µM] | AUC (KU-55933) | IC50 (KU-55933) [µM] | AUC (ABT-869) | IC50 (ABT-869) [µM] | AUC (CP466722) | IC50 (CP466722) [µM] | AUC (CHIR-99021; [1]) | IC50 (CHIR-99021; [1]) [µM] | AUC (CHIR-99021; [2]) | IC50 (CHIR-99021; [2]) [µM] | AUC (MPS-1-IN-1) | IC50 (MPS-1-IN-1) [µM] | AUC (Thapsigargin) | IC50 (Thapsigargin) [µM] | AUC (GSK269962A) | IC50 (GSK269962A) [µM] | AUC (QL-X-138) | IC50 (QL-X-138) [µM] | AUC (ABT-888) | IC50 (ABT-888) [µM]
CCK-81 (large intestine, adherent) | 0.918 | > 10 | 0.955 | > 2 | 0.988 | > 20 | 0.986 | > 10 | 0.989 | > 1.02 | 0.774 | 5.88 | 0.979 | > 2.56 | 0.973 | > 10 | 0.921 | > 20 | 0.854 | 0.366 | 0.989 | > 5 | 0.899 | > 10.2 | 0.99 | > 5
CHL-1 (melanoma, adherent) | 0.421 | 0.386 | 0.798 | 0.888 | 0.987 | > 20 | 0.856 | 7.31 | 0.984 | > 1.02 | 0.784 | 6.37 | 0.985 | > 2.56 | 0.986 | > 10 | 0.913 | > 20 | 0.252 | 0.00653 | 0.772 | 1.82 | 0.501 | 0.645 | 0.968 | > 5
CHP-212 (neuroblastoma, adherent) | 0.228 | 0.11 | 0.262 | 0.0279 | 0.979 | > 20 | 0.905 | > 10 | 0.976 | > 1.02 | 0.672 | 2.89 | 0.988 | > 2.56 | 0.84 | 6.15 | 0.988 | > 20 | 0.231 | 0.00571 | 0.789 | 2.02 | 0.871 | 8.38 | 0.943 | > 5
CHSA0011 (chondrosarcoma, adherent) | 0.579 | 1.12 | 0.846 | > 2 | 0.96 | > 20 | 0.979 | > 10 | 0.939 | > 1.02 | 0.89 | > 16 | 0.943 | > 2.56 | 0.894 | > 10 | 0.979 | > 20 | 0.884 | > 0.512 | 0.801 | 3.7 | 0.79 | 6.73 | 0.98 | > 5
CHSA0108 (chondrosarcoma, adherent) | 0.444 | 0.43 | 0.712 | 0.551 | 0.978 | > 20 | 0.949 | > 10 | 0.982 | > 1.02 | 0.884 | > 16 | 0.927 | > 2.56 | 0.944 | > 10 | 0.943 | > 20 | 0.639 | 0.0825 | 0.71 | 1.36 | 0.924 | > 10.2 | 0.978 | > 5
CHSA8926 (chondrosarcoma, adherent) | 0.702 | 2.97 | 0.908 | > 2 | 0.958 | > 20 | 0.972 | > 10 | 0.959 | > 1.02 | 0.862 | > 16 | 0.976 | > 2.56 | 0.744 | 4.3 | 0.98 | > 20 | 0.941 | > 0.512 | 0.8 | 3.69 | 0.913 | > 10.2 | 0.98 | > 5
COLO-679 (melanoma, adherent) | 0.151 | 0.0438 | 0.816 | 1.28 | 0.984 | > 20 | 0.978 | > 10 | 0.983 | > 1.02 | 0.855 | 15.3 | 0.984 | > 2.56 | 0.969 | > 10 | 0.97 | > 20 | 0.233 | 0.00481 | 0.916 | > 5 | 0.845 | 8.72 | 0.985 | > 5
COLO-680N (oesophagus, adherent) | 0.796 | 5.68 | 0.924 | > 2 | 0.985 | > 20 | 0.962 | > 10 | 0.98 | > 1.02 | 0.876 | > 16 | 0.986 | > 2.56 | 0.975 | > 10 | 0.986 | > 20 | 0.376 | 0.0137 | 0.98 | > 5 | 0.786 | 5.33 | 0.98 | > 5
COLO-783 (melanoma, adherent) | 0.935 | > 10 | 0.969 | > 2 | 0.99 | > 20 | 0.948 | > 10 | 0.987 | > 1.02 | 0.98 | > 16 | 0.989 | > 2.56 | 0.784 | 4.06 | 0.961 | > 20 | 0.569 | 0.049 | 0.99 | > 5 | 0.96 | > 10.2 | 0.991 | > 5
CP50-MEL-B (melanoma, adherent) | 0.218 | 0.0943 | 0.958 | > 2 | 0.988 | > 20 | 0.982 | > 10 | 0.987 | > 1.02 | 0.861 | 13.3 | 0.988 | > 2.56 | 0.958 | > 10 | 0.894 | > 20 | 0.347 | 0.0122 | 0.947 | > 5 | 0.918 | > 10.2 | 0.987 | > 5
